Here are results for 42 molecules from ChEMBL document CHEMBL5308541, “MAIP: An Open-Source Tool to Enrich High-Throughput Screening Output and Identify Novel, Druglike Molecules with Antimalarial Activity” (ACS Med Chem Lett, 2023).

The whole screen tested about 150,000 compounds, of which about 540 (0.36%) showed an effect of 50% or more. This is one part of the list.

For the experiment, the system named is Plasmodium falciparum. Briefly: Primary screen in NF54 nanoGlo assay, in single point, at 2uM, 72h; a lower Z score goes with more inhibition. It is filed as functional, Erythrocyte. Conditions: timepoint 72 hour.
For `Cc1cc2nc(CCC(=O)N(C)CCC[C@H]3CCCO3)[nH]c2cc1C`, the “% Inhibition” value was found to be 6% and the Z score is on record as -0.98.

With `COc1cc(Br)c2nc(NCc3ccc(OC)c(OC)c3)nc(N)c2c1`, the “% Inhibition” value was found to be 20% and the Z score was -3.45.

Regarding `Cc1c(C(=O)N2CCC([C@H]3CCNC3)CC2)cnn1C(C)C`, the “% Inhibition” value is listed as -9% and the Z score is 1.37.

On to `CCOC(=O)c1nc(NC(=O)c2ccnn2C(F)F)c[nH]1`, for which the “% Inhibition” value was -4% and the Z score was found to be 0.66.

Take `CC[C@H](O)CN1CCN(c2nc(C(F)(F)F)nc3ccc(OC)cc23)CC1`: the “% Inhibition” value was -4% and the Z score is 0.92.

Consider `CN(CCC#N)c1ccc(-c2nc3ccncc3[nH]2)cc1`, for which the “% Inhibition” value is 5% and the Z score is -0.81.

In the case of `CCN(C)c1ccnc(NC2CCN(C(=O)N3CCCCC3)CC2)n1`, the “% Inhibition” value came out at 8% and the Z score was -1.48.

Consider `Cc1nc(-c2ccncc2)nc(N2CC[C@H](N3CCNCC3)C2)c1C`, for which the “% Inhibition” value was 11% and the Z score is recorded as -1.7.

Take `CCc1cnc(C)nc1CC[C@H]1COc2ccccc2O1`: the “% Inhibition” value was -17% and the Z score stood at 2.57.

For `COc1ccc2[nH]c(CCNC(=O)N3CC4CCC3CNC4)nc2c1` (centres undefined), the “% Inhibition” value is given as -6% and the Z score is recorded as 1.09.

As to `CCCc1cc(N2CCC(N(C)Cc3cccc4cnccc34)CC2)nc(C)n1`, the “% Inhibition” value was 6% and the Z score is -1.1.

`CC(C)C1OCCCC1Nc1ccnc(NCc2ccc(C(N)=O)cc2)n1` (centres undefined): the “% Inhibition” value was 3% and the Z score is reported as -0.65.

With `CN(CCCN1CCN(c2cccc(Cl)c2)CC1)C1CC2CNC(=O)CC2C1` (centres undefined), the “% Inhibition” value came to 0% and the Z score is reported as 0.

As to `CCCN1CCC(NC2CCN(c3cccc(N4CCNC4=O)c3)CC2)CC1`, the “% Inhibition” value is recorded as -16% and the Z score is recorded as 2.77.

As for `O=S(=O)(c1cccnc1)N1CCC(CNc2ncnc3cnccc23)CC1`, the “% Inhibition” value is -1% and the Z score stood at 0.17.

As for `CC(C)c1cc(-c2ccnc3[nH]ccc23)nc(C(F)(F)F)n1`, the “% Inhibition” value is listed as -7% and the Z score was determined as 1.37.

With `COc1ccc2nc(CN3CCC(Oc4ncccc4F)CC3)[nH]c2n1`, the “% Inhibition” value is given as -5% and the Z score was determined as 0.82.

Consider `Cc1cc(NC(C)CN2CC(C)CC(C)C2)nc(N)n1` (centres undefined), for which the “% Inhibition” value is 2% and the Z score is given as -0.27.

For `Fc1ccc2c(CCNC3CCN(c4nccs4)CC3)c[nH]c2c1`, the “% Inhibition” value turned out to be 1% and the Z score was -0.19.

As for `O=S(=O)(c1ccccc1CNc1ccc2ncccc2c1)N1CCOCC1`, the “% Inhibition” value is 1% and the Z score is on record as -0.12.

As to `NC(=O)c1cc(C(=O)N[C@@H](CCO)c2cccs2)c[nH]1`, the “% Inhibition” value was -4% and the Z score turned out to be 0.78.

Regarding `CC(C)(O)c1cncc(-c2cccc(C(=O)N3CCC4CNCC43)c2)c1` (centres undefined), the “% Inhibition” value is on record as 1% and the Z score is on record as -0.09.

As for `Cc1cc(C(=O)Nc2ccc3[nH]c([C@H](C)O)nc3c2)nc(C)n1`, the “% Inhibition” value is -7% and the Z score came out at 1.6.

Consider `NCc1ccc(-c2cnc(N3CCC(O)CC3)nc2)cc1C(F)(F)F`, for which the “% Inhibition” value is reported as 1% and the Z score is -0.19.

On to `COCC1CCN(c2ccnc3cc(F)ccc23)CC1`, for which the “% Inhibition” value is 7% and the Z score is listed as -1.37.

On to `c1ccc2nc(-c3ccnc4[nH]ccc34)cnc2c1`, for which the “% Inhibition” value is on record as -4% and the Z score is given as 0.62.

For the molecule `Oc1cc(CN2CC(O)C(Cc3ccc4ccccc4n3)C2)nc2ccccc12` (centres undefined), the “% Inhibition” value is -1% and the Z score is 0.32.

`CCN(CC)CCN(CC)C(=O)c1ccc(-c2[nH]nc3c2CCc2cc(OC)ccc2-3)cc1`: the “% Inhibition” value is 6% and the Z score is recorded as -1.08.

As for `Cc1cccc2c(-c3cncc(C(C)(C)O)c3)c[nH]c12`, the “% Inhibition” value was -6% and the Z score is 1.11.

Turning to `NC(=O)C1CC=CCC1NC1CCN(c2cccc(-c3ccccc3)c2)CC1` (centres undefined), the “% Inhibition” value is on record as -5% and the Z score was found to be 0.93.

With `COc1ncnc(C)c1-c1ccc(N2CCNCC2)cc1`, the “% Inhibition” value is reported as 2% and the Z score is -0.46.

On to `CC(C)c1cc(NC(=O)c2ccc3c(c2)N(C)CCO3)n(C(C)C)n1`, for which the “% Inhibition” value is given as 8% and the Z score is -1.28.

As to `COCC[C@]1(C(N)=O)CCCN(C2CCN(C(=O)CCc3c[nH]c4ccccc34)CC2)C1`, the “% Inhibition” value is listed as -7% and the Z score came to 1.24.

Regarding `O=C(O)c1ccc(-c2ccc3[nH]ccc3c2)nn1`, the “% Inhibition” value is -9% and the Z score is 1.32.

For `CCN1CCC[C@H](CN2CCC(c3cc[nH]c(=O)c3)CC2)C1`, the “% Inhibition” value was -7% and the Z score is 1.17.

With `Cc1cc(N2CCC(N(C)Cc3ncc(-c4ccccc4C)o3)CC2)nc(C)n1`, the “% Inhibition” value was -3% and the Z score is listed as 0.66.

In the case of `COc1ccc(CN2CCCNC(=O)[C@@H](C(C)C)NC(=O)[C@@H](C)NC(=O)CCC2)cc1Cn1cccn1`, the “% Inhibition” value was -3% and the Z score worked out at 0.66.

With `CC(C)N1CC23C=CC(O2)C(C(=O)Nc2nc(-c4ccc(F)cc4)cs2)C3C1=O` (centres undefined), the “% Inhibition” value is reported as -6% and the Z score came to 1.37.

Regarding `Nc1nc(NCC2CCN(CCc3ccccc3)CC2)cc([C@H]2C[C@@H](N)C2)n1`, the “% Inhibition” value is given as 28% and the Z score is reported as -5.5.

In the case of `Nc1nc(CCCNc2nccc(-c3ccccn3)n2)cs1`, the “% Inhibition” value is listed as 9% and the Z score is recorded as -2.

Turning to `COCC(=O)NCC(O)(c1cccs1)c1cccs1`, the “% Inhibition” value is -1% and the Z score is 0.28.

Take `O=C(COc1ccc(-c2csc3ccccc23)cc1CN1CCOCC1)N1CCCC[C@H]1c1cccnc1`: the “% Inhibition” value is recorded as -9% and the Z score is listed as 1.52.

One may read the % Inhibition as the change of the read-out against control, counted positive when it falls.
